Source: PMC4336329 (PLoS ONE, 2015)
The whole screen tested about 310,000 compounds, of which about 2,200 (0.71%) showed an effect of 50% or more. Effects have a minus sign here. Some of the results follow.

What follows are molecules tested against human ether-à-go-go-related gene (hERG) potassium channel (human, UniProt Q12809) (assay: primary screen, population patch clamp on CHO cells stably expressing hERG).
human ether-à-go-go-related gene (hERG) potassium channel, sequence (Q12809 whole entry, looked up): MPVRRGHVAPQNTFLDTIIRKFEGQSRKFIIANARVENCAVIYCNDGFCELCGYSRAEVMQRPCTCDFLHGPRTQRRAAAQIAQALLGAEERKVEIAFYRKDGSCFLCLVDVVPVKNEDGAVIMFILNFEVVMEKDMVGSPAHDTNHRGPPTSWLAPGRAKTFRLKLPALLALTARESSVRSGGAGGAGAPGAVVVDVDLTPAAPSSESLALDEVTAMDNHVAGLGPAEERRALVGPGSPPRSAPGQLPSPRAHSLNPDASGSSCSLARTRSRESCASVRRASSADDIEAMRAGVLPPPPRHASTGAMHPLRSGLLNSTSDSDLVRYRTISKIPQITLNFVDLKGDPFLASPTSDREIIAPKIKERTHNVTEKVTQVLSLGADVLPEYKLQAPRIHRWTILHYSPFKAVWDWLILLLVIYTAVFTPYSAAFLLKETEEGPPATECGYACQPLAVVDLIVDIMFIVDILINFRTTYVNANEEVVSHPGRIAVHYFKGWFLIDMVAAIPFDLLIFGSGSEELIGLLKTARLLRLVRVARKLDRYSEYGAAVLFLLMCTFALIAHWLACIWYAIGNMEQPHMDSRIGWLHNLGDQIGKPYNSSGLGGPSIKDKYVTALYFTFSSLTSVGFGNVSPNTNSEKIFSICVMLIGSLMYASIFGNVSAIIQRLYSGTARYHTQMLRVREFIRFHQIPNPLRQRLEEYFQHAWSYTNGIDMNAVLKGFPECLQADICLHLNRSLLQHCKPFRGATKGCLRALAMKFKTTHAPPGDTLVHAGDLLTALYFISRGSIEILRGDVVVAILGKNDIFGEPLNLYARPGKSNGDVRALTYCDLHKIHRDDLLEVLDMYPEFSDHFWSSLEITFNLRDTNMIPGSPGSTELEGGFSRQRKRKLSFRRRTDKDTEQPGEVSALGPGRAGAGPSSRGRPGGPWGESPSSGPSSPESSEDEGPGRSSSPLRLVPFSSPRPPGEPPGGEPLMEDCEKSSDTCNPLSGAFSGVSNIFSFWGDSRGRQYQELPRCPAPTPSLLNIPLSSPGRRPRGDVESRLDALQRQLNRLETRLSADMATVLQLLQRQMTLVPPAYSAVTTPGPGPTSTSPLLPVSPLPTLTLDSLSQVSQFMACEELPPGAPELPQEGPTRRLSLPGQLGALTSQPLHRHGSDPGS

In order of rising “hERG current change (%, negative = inhibition) at 1uM” value:
1. COc1ccc(Cn2nc(-c3ccccc3)c(N3CCCCC3)cc2=O)cc1  -9.28%
2. Cc1cc(Br)ccc1NC(=O)C1CSC2(C)CCC(=O)N12 (stereo not drawn)  -4.61%
3. NC(=O)c1cc2ccccc2o/c1=N\NC(=O)c1ccncc1  -4.09%
4. CC(=O)N1CCSc2ccc(S(=O)(=O)NCCc3cccc(C)c3)cc21  -2.36%
5. Cn1c(=O)c2[nH]c(NCCCN3CCOCC3)nc2n(C)c1=O  -2.23%
6. CC(=O)Nc1ccc(S(=O)(=O)N/N=C/c2cccnc2)cc1  -1.17%
7. CC(=O)NC(Cc1ccc(C)cc1)C(=O)NC1CCN(S(=O)(=O)c2ccccc2)CC1 (stereo not drawn)  -0.623%
8. CC1CCCCN1S(=O)(=O)c1ccc(S(=O)(=O)N2CCN(c3ccc(F)cc3)CC2)cc1 (stereo not drawn)  -0.313%
9. COc1cc(/C=N/n2cc(-c3ccccc3)[nH]c2=S)cc(OC)c1O  2.18%
10. NC(=O)c1ccccc1NC(=O)NC1CCCCC1  2.35%
11. O=C(CSC1=NS(=O)(=O)c2cc(F)ccc2N1)Nc1cccc(F)c1  2.39%
12. O=C(CNC(c1ccccc1)c1ccccc1)Nc1c(F)cccc1F  3.22%
13. Cc1cccc(C(=O)Oc2ccc(/C=N/O)cc2)c1  3.57%
14. CC(=O)N1CCc2cc(Br)cc(S(=O)(=O)NCC3CCCO3)c21 (stereo not drawn)  3.6%
15. COc1cccc(-n2c(N)c(C#N)c3ccc([N+](=O)[O-])cc3c2=O)c1  3.67%
16. CC1=C(C(=O)N(C)C)C(c2ccc(Cl)c(Cl)c2)NC(=O)N1 (stereo not drawn)  4.14%
17. Br.c1cn2cc(CN3CCOCC3)nc2s1  4.97%
18. COc1ccccc1N(C)S(=O)(=O)c1ccc(C(=O)OCC(=O)NCCC2=CCCCC2)cc1  5.44%
19. CCOc1ccc(NS(=O)(=O)c2ccc3[nH]cc(C(=O)NC(C)CC)c(=O)c3c2)cc1 (stereo not drawn)  5.91%
20. O=C(CCCCCn1c(=O)[nH]c2ccsc2c1=O)NCc1ccc2c(c1)OCO2  6.23%
21. Cc1ccc(-c2nn3c(C)nnc3c3ccccc23)cc1S(=O)(=O)N(C)CCO  6.4%
22. CCC(C)NC(=O)C(NS(=O)(=O)c1ccc2c(c1)c(=O)n(C)c(=O)n2C)c1ccccc1 (stereo not drawn)  7.18%
23. COc1ccc(-n2ncc3c2CC(C)(C)CC3NC(=O)CCN2CCCC2=O)cc1 (stereo not drawn)  7.82%
24. CC(Oc1ccccc1)C(=O)Nc1cccc(F)c1 (stereo not drawn)  8.48%
25. COCCN1C(=O)/C(=C/c2c(OC)cc(OC)cc2OC)C(=O)N(c2ccccc2)C1=O  8.55%
26. O=Cc1cn(Cc2cccc(F)c2)c2ccccc12  8.79%
27. CNS(=O)(=O)c1cccc(C(=O)OCC(=O)N2c3ccccc3CC2C)c1 (stereo not drawn)  9.07%
28. Cc1cccc(C(=O)NC2CC(C)(C)NC(C)(C)C2)c1  9.14%
29. CC(=O)c1ccc(C(=O)N2CCCC(Nc3ccccc3)C2)s1 (stereo not drawn)  9.65%
30. CN(CC(=O)Nc1cccc(F)c1)C(=O)c1ccc(N2C(=O)c3ccccc3C2=O)cc1  10.7%
31. Cc1cc2ncc(-c3cccc(Cl)c3)cn2n1  11%
32. O=S1(=O)N(Cc2ccccc2F)CCCN1Cc1c(F)cccc1Cl  11.2%
33. Cc1[nH]c2ccccc2c1C(=O)COC(=O)c1ccc([N+](=O)[O-])s1  11.3%
34. CC(C)(C)[C@@H]1C=C(C(=O)NCc2ccccc2)O[C@H](OCc2ccc(CO)cc2)C1  11.5%
35. CC(=O)CCC(=O)OCC(=O)c1ccc(C(F)(F)F)cc1  11.6%
36. O=C(CSCc1ccc(Cl)cc1)Nc1ccc(O)cc1C(=O)O  11.8%
37. N/C(=N\OC(=O)COc1cc(Cl)c(Cl)cc1Cl)c1ccncc1  11.9%
38. CN(C)c1cc[n+](CC(=O)Nc2ccc([N+](=O)[O-])cc2Cl)cc1.[Cl-]  12.9%
39. COC(=O)C1=C(c2ccc(F)cc2OCc2ccccc2)C[C@@H]2CC[C@H]1N2C(=O)NC1CC1  13%
40. CCN(CC)c1ccc([N+](=O)[O-])cc1C(=O)O  13.2%
41. O=C(NCCCN1CCCC1=O)c1cccc(NS(=O)(=O)c2ccccc2)c1  13.4%
42. Cc1ccc(S(=O)(=O)Nc2cccc(CP(=O)(c3ccccc3)c3ccccc3)c2)cc1  14%
43. COc1ccc(OC)c(C2=NS(=O)(=O)N(C)C(C(=O)Nc3ccc(C(C)=O)cc3)=C2)c1  14.1%
44. COC(=O)C(C)Sc1n[nH]c(=S)s1 (stereo not drawn)  15%
45. O=C(N/N=C/c1ccccc1Cl)c1ccc(F)cc1  15.6%
46. O=[N+]([O-])c1ccc(-c2nc(C(Cl)Cl)c3ccccc3n2)cc1  16.1%
47. Cc1ccc(OCCNC(=O)CCNS(=O)(=O)c2ccc(Br)cc2)cc1  18%
48. CCn1nc([N+](=O)[O-])c(C(C#N)c2nc3cc(C(F)(F)F)ccc3s2)c(Cl)c1=O (stereo not drawn)  18%
49. CCc1ccc(NC(=O)CCS(=O)(=O)c2ccc(Cl)cc2)cc1  18%
50. O=C1NN=C(c2ccccc2)CC1c1ccc(Cl)cc1Cl (stereo not drawn)  18.7%
51. O=C(O)C(Cc1ccccc1)NC(=O)C(Cc1ccccc1)NC(=O)C12CC3CC(CC(C3)C1)C2 (stereo not drawn)  19.5%
52. O=C(O)c1cnn(-c2nc(-c3cccc([N+](=O)[O-])c3)cs2)c1C(F)(F)F  19.7%
53. Cc1ccc(C(=O)NNC(=O)CSc2nnc(CNc3ccc(F)cc3)n2C)cc1  19.9%
54. CN(Cc1c(C(=O)N/N=C/c2ccccc2F)nnn1-c1nonc1N)c1ccccc1  30.3%
